# Test results as given in the RNAGym collection of RNA variant scans (doi:10.1073/pnas.2313332121).
# This sample is rich in variants without activity.
# B1: TPR 5TU (parent)
# chain: GGAUCUUCUCGAUCUAACAAAAAAGACAAAUCUGCCACAAAGCUUGAGAGCAUCUUCGGAUGCAGAGGCGGCAGCCUUCGGUGGCGCGAUAGCGCCAACGUUCUCAACUAUGACACGCAAAACGCGUGCUCCGUUGAAUGGAGUUUAUCAUG
# Variants of: B1
# Test: polymerase ribozyme fitness, log enrichment relative to wild type (log ratio); higher = more active; in vitro selection for triplet polymerase activity
# Outline: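 In triplicate, a single round of in vitro selection was run on each mutant library, PCR-built and transcribed, covering one subunit of a heterodimeric triplet polymerase ribozyme. Frozen incubation at −7 °C followed annealing with a biotinylated primer, partner subunit and triplets, and extended constructs were then gel-excised, streptavidin-captured and taken through RT-PCR. Fitness is the logarithm of genotype enrichment over wild-type enrichment, from inverse-variance-weighted replicate averages of Illumina-sequenced inputs and outputs. […] only genotypes with ≥10 input reads and ≥1 read per output were kept.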
row,Variant,polymerase ribozyme fitness (log ratio)
1,GGAUCUUCUCGAUCUAACAAAAAAGACAAAUCUGCCACAUAGCUUGAGAGCAUCUUCGGAUGCAGAGGCGGCACCCUUCGGUGGCGCGAUAGUGCCAACGUUCUCAACUAUGACACGCAAAACGCGUGCUCCGUUGAAUGGAUAUUAUCGUG [A40U G74C C93U G143U U144A A150G],≤ -4.2
2,GGAUCUUCUCGAUCUAACAAAAAAGACAAAUCUGCCACAUAGCUUGAGAGCAUCUUCGGAUGCAGAGGCGGCAGCCUUCAGUGGCGAGAUAGCGCCAACGUUCUCAACUAUGACACGCAAAACGCGGGCUCCGUUGAAUGGAGUUUCUCAUG [A40U G80A C87A U127G A147C],≤ -4.2
3,GGAUCUUCUCGAUCUAACAAAAAAGACAAAUCUGCCACAUAGCUUGAGAGCAUCUUCGGAUGCAGAGGCGGCAGCCUUCGGUCGCGCGAUAGCGCAAACGUUCUCAACUAUGACACGCAAAACGCGUGCUCCGUUGAAUGGAGUUUAUCAUA [A40U G83C C96A G152A],-3.95
4,GGAUCUUCUCGAUCUAACAAAAAAGACAAAUCUGCCACAUAGCUUGAGAGCAUCUUCGGAUGCAGAGGCGGCAGCCUUCGGUGCCGCGUUAGCGCCAACGUUCUCAACUAUGACUCGCAAAACGUGUGCUCCGUUGAAUGGAGUUUAUCAUG [A40U G84C A89U A115U C125U],≤ -4.2
5,GGAUCUUCUCGAUCUAACAAAAAAGACAAAUCUGCCACAUAGCUUGAGAGCAUCUUCGGAUGCAGAGGCGGCAGCCUUCGGUGGCACGAUAGCGCCAACGUUCUCAACUAUGACACGCAAAACGCGUGCUCCGUUGAAUUGAGUUUAUCCUG [A40U G86A G140U A150C],≤ -4.2
6,GGAUCUUCUCGAUCUAACAAAAAAGACAAAUCUGCCACAUAGCUUGAGAGCAUCUUCGGAUGCAGAGGCGGCAGCCUUCGGUGGCCCGAUAGCGCCAACGUUCUCAACUAUGACACGCAAAACGCGUGCUCCGUUGAAUGGAGUUUAUCAUA [A40U G86C G152A],≤ -4.2
7,GGAUCUUCUCGAUCUAACAAAAAAGACAAAUCUGCCACAUAGCUUGAGAGCAUCUUCGGAUGCAGAGGCGGCAGCCUUCGGUGGCUCGAUAGUGCCAACGUUCUCAACUAUGACACGCAAAACGCGUGCUCCGUUGAAUGGAGUUUAUUAUG [A40U G86U C93U C149U],-3.56
8,GGAUCUUCUCGAUCUAACAAAAAAGACAAAUCUGCCACAUAGCUUGAGAGCAUCUUCGGAUGCAGAGGCGGCAGCCUUCGGUGGCUCGAUAGCACCAACGUUCUCAACUAUGACACGCAAAACGCGUGCUCCGUUGAAUGGAGUUUAUCAUG [A40U G86U G94A],≤ -4.2
9,GGAUCUUCUCGAUCUAACAAAAAAGACAAAUCUGCCACAUAGCUUGAGAGCAUCUUCGGAUGCAGAGGCGGCAGCCUUCGGUGGCGCUAUAGCGCCAACGUUAUCAACUAUGACACGCAAAACGCGUGCUCCGUUGAAUGGAGUUUAUCAUG [A40U G88U C103A],≤ -4.2
10,GGAUCUUCUCGAUCUAACAAAAAAGACAAAUCUGCCACAUAGCUUGAGAGCAUCUUCGGAUGCAGAGGCGGCAGCCUUCGGUGGCGCGAUAACGCCAACGUUCUCAACUAUGACACGCAUAACGCGUGCUCAGUUGAAUGCAGUUUAUCAUG [A40U G92A A120U C132A G141C],≤ -4.2
11,GGAUCUUCUCGAUCUAACAAAAAAGACAAAUCUGCCACAUAGCUUGAGAGCAUCUUCGGAUGCAGAGGCGGCAGCCUUCGGUGGCGCGAUAUCGCCACCGUUGUCAACUAUGACACGCACAACGCGUGCUCCGAUGAAUGGAGUUUAUCAUG [A40U G92U A98C C103G A120C U134A],-3.87
12,GGAUCUUCUCGAUCUAACAAAAAAGACAAAUCUGCCACAUAGCUUGAGAGCAUCUUCGGAUGCAGAGGCGGCAGCCUUCGGUGGCGCGAUAGCGCCAACGUUCUCAACUAUGACACGCAAAACGCUUGCUCCGUUGAAUGGAGUUUAACAUG [A40U G126U U148A],≤ -4.2
13,GGAUCUUCUCGAUCUAACAAAAAAGACAAAUCUGCCACAUAGCUUGAGAGCAUCUUCGGAUGCAGAGGCGGCAGCCUUCGGUGGCGCGAUAGCGCCAACGUUCUCAACUAUGACACGCAAAACGCGUGCUCCGUUGAAUGUAGUUUAUCAUG [A40U G141U],0.96
14,GGAUCUUCUCGAUCUAACAAAAAAGACAAAUCUGCCACAUAGCAUGAGAGCAUCUUCGCAUGCAGAGGCGGCAGCCUUCGGUGGCGGGAUAGCGCCAACGUUCGCAACUAUGACACGCAAAACACGUGCUCCGUUGAAUGGAGUUUAUCAUG [A40U U44A G59C C87G U104G G124A],≤ -4.2
15,GGAUCUUCUCGAUCUAACAAAAAAGACAAAUCUGCCACAUAGCUUGAGAGCACCUUCGGAUGCAGAGGCGGCAUCCUUCGGUGGCGCGAUAGCGCCAACGGUCUCAACUAUGACACGCAAAACGCGUGCUCCGUUGAAUGGAGUUUAUCAUG [A40U U53C G74U U101G],≤ -4.2
16,GGAUCUUCUCGAUCUAACAAAAAAGACAAAUCUGCCACAUAGCUUGAGAGCAGCUUCGGAUGCAGAGGCGGCAGCCUUCGGUAGCGUGAUAGCGCCAACGCUCUCAACUAUGACACGCAAAACGCGUGCUCCGUUGAAUGCAGUUUAUCAUG [A40U U53G G83A C87U U101C G141C],≤ -4.2
17,GGAUCUUCUCGAUCUAACAAAAAAGACAAAUCUGCCACAUAGCUUGAGAGCAUCAUCCGAUGCAGAGGCGGCAGCCUUCGGUGGGGCGAUAGCGCCAACGUUCUCAACUAUGACACGCUAAACGCGUGCUCCGUUGAAUGGAGUUUAUCAUG [A40U U55A G58C C85G A119U],-2.59
18,GGAUCUUCUCGAUCUAACAAAAAAGACAAAUCUGCCACAUAGCUUGAGAGCAUCCUCGGAUGCAGAGGCGGCAGCCUGCGGUGGCGCGAUAGCGCCAACGUUCUCAACUAUGACACGCAAAACGCGUGCUCCGUUGAAUGGAGUUUAUCAAG [A40U U55C U78G U151A],≤ -4.2
19,GGAUCUUCUCGAUCUAACAAAAAAGACAAAUCUGCCACAUAGCUUGAGAGCAUCGUCAGAUGCAGAGGCGGCAGCCUUCGGUGGCGCGAUAGCGCCGACGUUCUCAACUAUGACACGCAAAACGCGUGCUCCGUUGAAUGGAGUUUAUCAUG [A40U U55G G58A A97G],-0.0754
